Data as given in the supplement of paper PMC12217912.
Some of the results follow. Sequences were assembled here from the parent chain. Values near 0.05 are background.

B1: TEV protease; numbered along this chain (parent)
chain: MGESLFKGPRDYNPISSSICHLTNESDGHTTSLYGIGFGPFIITNKHLFRRNNGTLVVQSLHGVFKVKDTTTLQQHLVDGRDMIIIRMPKDFPPFPQKLKFREPQREERICLVTTNFQTKSMSSMVSDTSCTFPSGDGIFWKHWIQTKDGQCGSPLVSTRDGFIVGIHSASNFTNTNNYFTSVPKNFMELLTNQEAQQWVSGWRLNADSVLWGGHKVFMVKPEEPFQPVKEATQL

Variants of: B1
Test: raw area under fraction-flipped curve 0-4 h after induction (AUC4h, not background-subtracted), DNA-recorder readout of cleavage of the substrate (dimensionless); higher = more cleavage of the substrate by the protease variant
Conditions: temperature: 34 °C; time window: 0-4 h after rhamnose induction
Experimental: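 In vivo DNA recorder in E. coli TOP10(DE3) ΔrhaA at 34 °C. Each TEVp single-site mutant (parent TEVp 0) is paired with a single-site variant of the 7-mer TEVs (canonical ENLYFQ|S). The substrate sits between flexible linkers in a Bxb1-sfGFP-TEVs-SsrA fusion, so cleavage stabilises Bxb1 and speeds flipping of a recombination array, read by NGS. The value is the raw area under the fraction-flipped curve over 0-4 h after rhamnose induction (AUC4h), with ≥20 reads per time point. It is not background-subtracted; inactive controls average about 0.047.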
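Note: Bxb1 expression induced with 0.2% (w/v) L-rhamnose at OD600 near 0.5, cultures sampled hourly, flipped fraction per protease–substrate barcode pair counted by paired-end Illumina sequencing.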

Variant	area with substrate ANLYFQS	area with substrate CNLYFQS	area with substrate DNLYFQS	area with substrate GNLYFQS	area with substrate HNLYFQS	area with substrate INLYFQS	area with substrate KNLYFQS	area with substrate LNLYFQS	area with substrate MNLYFQS	area with substrate NNLYFQS	area with substrate PNLYFQS	area with substrate RNLYFQS	area with substrate SNLYFQS	area with substrate TNLYFQS	area with substrate VNLYFQS	area with substrate WNLYFQS	area with substrate YNLYFQS	area with substrate FNLYFQS	area with substrate QNLYFQS
MGESLFKGPRDYNPISSSICHLTNESDGHTTSLYGIGFGPFIITNKHLFRRNNGTLVVQSLHGVFKVKDTTTYQQHLVDGRDMIIIRMPKDFPPFPQKLKFREPQREERICLVTTNFQTKSMSSMVSDTSCTFPSGDGIFWKHWIQTKDGQCGSPLVSTRDGFIVGIHSASNFTNTNNYFTSVPKNFMELLTNQEAQQWVSGWRLNADSVLWGGHKVFMVKPEEPFQPVKEATQL [L73Y]	0.0618	0.0309	0.0699	0.0604	0.0521	0.0397	0.0571	0.0519	0.0481	0.0827	0.0552	0.0896	0.0536	0.0656	0.0638	0.0562	0.0849	–	–
MGESLFKGPRDYNPISSSICHLTNESDGHTTSLYGIGFGPFIITNKHLFRRNNGTLVVQSLHGVFKVKDTTTPQQHLVDGRDMIIIRMPKDFPPFPQKLKFREPQREERICLVTTNFQTKSMSSMVSDTSCTFPSGDGIFWKHWIQTKDGQCGSPLVSTRDGFIVGIHSASNFTNTNNYFTSVPKNFMELLTNQEAQQWVSGWRLNADSVLWGGHKVFMVKPEEPFQPVKEATQL [L73P]	0.0545	0.0501	0.0602	–	0.0377	0.0508	–	0.0522	0.0441	0.0413	0.0744	–	0.0572	0.0457	–	–	0.0499	–	–
MGESLFKGPRDYNPISSSICHLTNESDGHTTSLYGIGFGPFIITNKHLFRRNNGTLVVQSLHGVFKVTDTTTLQQHLVDGRDMIIIRMPKDFPPFPQKLKFREPQREERICLVTTNFQTKSMSSMVSDTSCTFPSGDGIFWKHWIQTKDGQCGSPLVSTRDGFIVGIHSASNFTNTNNYFTSVPKNFMELLTNQEAQQWVSGWRLNADSVLWGGHKVFMVKPEEPFQPVKEATQL [K68T]	0.0713	0.0846	0.0926	0.0739	–	0.0543	–	0.0871	0.0675	0.0678	0.0679	–	0.0867	0.0622	0.0707	0.0429	0.0449	0.0534	–
MGESLFKGPRDYNPISSSICHLTNESDGHTTSLYGIGFGPFIITNKHLFRRNNGTLVVQSLHGVFKLKDTTTLQQHLVDGRDMIIIRMPKDFPPFPQKLKFREPQREERICLVTTNFQTKSMSSMVSDTSCTFPSGDGIFWKHWIQTKDGQCGSPLVSTRDGFIVGIHSASNFTNTNNYFTSVPKNFMELLTNQEAQQWVSGWRLNADSVLWGGHKVFMVKPEEPFQPVKEATQL [V67L]	0.0745	0.0665	0.073	0.0655	0.0533	–	0.0659	–	0.0672	0.0636	0.0601	–	0.0499	0.0745	–	0.0534	–	0.0488	–
MGESLFKGPRDYNPISSSICHLTNESDGHTTSLYGIGFGPFIITNKHLFRRNNGTLVVQSLHGVFKTKDTTTLQQHLVDGRDMIIIRMPKDFPPFPQKLKFREPQREERICLVTTNFQTKSMSSMVSDTSCTFPSGDGIFWKHWIQTKDGQCGSPLVSTRDGFIVGIHSASNFTNTNNYFTSVPKNFMELLTNQEAQQWVSGWRLNADSVLWGGHKVFMVKPEEPFQPVKEATQL [V67T]	0.0523	0.0667	0.0683	0.0536	0.0564	0.0567	0.0702	–	–	–	0.0641	–	–	0.0599	–	0.0579	0.0568	–	–
MGESLFKGPRDYNPISSSICHLTNESDGHTTSLYGIGFGPFIITNKHLFRRNNGTLVVQSLHGVFKDKDTTTLQQHLVDGRDMIIIRMPKDFPPFPQKLKFREPQREERICLVTTNFQTKSMSSMVSDTSCTFPSGDGIFWKHWIQTKDGQCGSPLVSTRDGFIVGIHSASNFTNTNNYFTSVPKNFMELLTNQEAQQWVSGWRLNADSVLWGGHKVFMVKPEEPFQPVKEATQL [V67D]	0.042	0.0532	0.051	0.0494	0.0397	0.0466	0.0248	–	0.047	0.0628	0.0507	–	0.0496	0.061	–	0.0472	0.0322	0.0437	0.063
MGESLFKGPRDYNPISSSICHLTNESDGHTTSLYGIGFGPFIITNKHLFRRNNGTLVVQSLHGVFKVKDTCTLQQHLVDGRDMIIIRMPKDFPPFPQKLKFREPQREERICLVTTNFQTKSMSSMVSDTSCTFPSGDGIFWKHWIQTKDGQCGSPLVSTRDGFIVGIHSASNFTNTNNYFTSVPKNFMELLTNQEAQQWVSGWRLNADSVLWGGHKVFMVKPEEPFQPVKEATQL [T71C]	0.0855	0.0475	0.0708	–	0.0685	–	–	–	0.0729	–	0.0508	–	–	0.0631	0.0611	–	0.0394	0.0648	–
MGESLFKGPRDYNPISSSICHLTNESDGHTTSLYGIGFGPFIITNKHLFRRNNGTLVVQSLHGVFKVKDTLTLQQHLVDGRDMIIIRMPKDFPPFPQKLKFREPQREERICLVTTNFQTKSMSSMVSDTSCTFPSGDGIFWKHWIQTKDGQCGSPLVSTRDGFIVGIHSASNFTNTNNYFTSVPKNFMELLTNQEAQQWVSGWRLNADSVLWGGHKVFMVKPEEPFQPVKEATQL [T71L]	0.063	0.0731	0.0775	–	0.065	–	–	–	0.0625	–	0.0707	–	–	0.0608	–	0.0503	–	0.0293	–
MGESLFKGPRDYNPISSSICHLTNESDGHTTSLYGIGFGPFIITNKHLFRRNNGTLVVQSLHGVFKVKDTWTLQQHLVDGRDMIIIRMPKDFPPFPQKLKFREPQREERICLVTTNFQTKSMSSMVSDTSCTFPSGDGIFWKHWIQTKDGQCGSPLVSTRDGFIVGIHSASNFTNTNNYFTSVPKNFMELLTNQEAQQWVSGWRLNADSVLWGGHKVFMVKPEEPFQPVKEATQL [T71W]	0.0573	0.0718	0.0756	0.0654	0.0568	0.0546	0.0494	0.0881	–	0.0511	–	–	–	0.0557	–	0.0523	0.0583	–	–
